According to the supplement of paper PMC11060735:
Where “and” joins values, the source holds several entries; their conditions need not be identical. Equal values may be shown once. Where a name gives a salt, the structure may show the parent alone. Screen size: about 1,800 compounds; about 50 (3%) showed activity. The list shows a part of the results.

system: mouse p16Ink4a+/- lung fibroblasts (INKBRITE, bleomycin-injured); test: percentage of GFP+ (p16Ink4a+) fibroblasts among all cells in well; higher = less depletion of p16Ink4a+ cells, active = 20 or less; conditions: 1 µM; 3 days
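Further: fibroblasts sorted 14 days after bleomycin, GFP+ and GFP− mixed 1:1 in 384-well plates (GFP− as in-well control), imaged after Hoechst and NucView530 staining, reference wells lacked compound.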

SMILES | percentage of GFP+
Cc1cc2c(F)c(Oc3ncnn4cc(OC[C@@H](C)OC(=O)[C@H](C)N)c(C)c34)ccc2[nH]1 [Brivanib Alaninate] | inactive: 35.2%
CC(C)(Oc1ccc(CCNC(=O)c2ccc(Cl)cc2)cc1)C(=O)O [Bezafibrate] | inactive: 39.1%
CN(Cc1cnc2nc(N)nc(N)c2n1)c1ccc(C(=O)N[C@@H](CCC(=O)O)C(=O)O)cc1 [Methotrexate] | inactive: 38.4%
O=C(NNc1nc2cc(F)ccc2n2cccc12)c1cnccn1 | inactive: 30.3%
CC/C(=C(\c1ccccc1)c1ccc(OCCN(C)C)cc1)c1ccccc1 [Tamoxifen] | inactive: 34.9%
CC(C)NC[C@H](O)COc1ccc(CCOCC2CC2)cc1 [Levobetaxolol] | inactive: 48%
COC(=O)N1CCN(Cc2cccc(NC(=O)Nc3ccc(C)nc3)c2F)CC1 [Omecamtiv mecarbil] | inactive: 45.9%
O=C(O)CCCCC(CCSCc1ccccc1)SCc1ccccc1 (centres undefined) | inactive: 44.3%
CN(C)C/C=C/C(=O)Nc1cc2c(Nc3ccc(F)c(Cl)c3)ncnc2cc1O[C@H]1CCOC1 [Afatinib] | inactive: 43.9%
CCCc1nc(C(C)(C)O)c(C(=O)OCc2oc(=O)oc2C)n1Cc1ccc(-c2ccccc2-c2nn[nH]n2)cc1 [Olmesartan Medoxomil] | inactive: 38.2%
CCCC(C)NC(=O)c1ccc(Cl)c(Cl)c1 (centres undefined) | inactive: 45.8%
C[C@@H]1C(=O)O[C@H]2[C@@H](O)C34[C@H]5C[C@@H](C(C)(C)C)C36[C@@H](OC(=O)[C@@H]6O)O[C@@]4(C(=O)O5)[C@@]12O (some centres undefined) [Ginkgolide B] | inactive: 48.5%
CN1CCC(NC(=O)c2cc(-c3c(O)cc(O)cc3Oc3ccc([N+](=O)[O-])cc3)on2)CC1 | inactive: 35.6%
Cc1ccc(C(=O)Nc2ccc(CN3CCN(C)CC3)c(C(F)(F)F)c2)cc1C#Cc1cnc2[nH]ncc2c1 [Olverembatinib] | active: 17.2%
OC[C@@H](O)[C@@H](O)CO [_x000D_  Meso-Erythritol] | inactive: 54.8%
Cc1cc(NC(=O)Nc2ccc(N(C)C)cc2)c2cc(F)cc(F)c2n1 | inactive: 37.4%
CCC(=O)O[C@]1(C(=O)SCF)[C@H](C)C[C@H]2[C@@H]3C[C@H](F)C4=CC(=O)C=C[C@]4(C)[C@@]3(F)[C@@H](O)C[C@@]21C [Fluticasone propionate] | inactive: 38.7%
CCOC(=O)c1ccc(N2NC(=O)/C(=C/c3ccc([N+](=O)[O-])o3)C2=O)cc1 | inactive: 45.9%
O=C(/C=C/c1ccc(O)c(O)c1)O[C@@H]1C[C@](O)(C(=O)O)C[C@@H](O)[C@H]1O [Chlorogenic Acid] | inactive: 36.6%
CC[C@H]1OC(=O)[C@H](C)[C@@H](O[C@H]2C[C@@](C)(OC)[C@@H](O)[C@H](C)O2)[C@H](C)[C@@H](O[C@@H]2O[C@H](C)C[C@H](N(C)C)[C@H]2O)[C@](C)(O)C[C@@H](C)/C(=N/OCOCCOC)[C@H](C)[C@@H](O)[C@]1(C)O [Roxithromycin] | inactive: 41.7%
CN1C[C@@H]2c3ccccc3Oc3ccc(Cl)cc3[C@H]2C1 [Asenapine] | inactive: 49.5%
O=C1C(O)=C([C@H]2CC[C@H](c3ccc(Cl)cc3)CC2)C(=O)c2ccccc21 [Atovaquone] | inactive: 47.1%

SMILES | percentage of GFP+
COc1ccccc1OCC(O)CN1CCN(CC(=O)Nc2c(C)cccc2C)CC1 (centres undefined) [Ranolazine, Ranolazine Dihydrochloride] | inactive: 42.9% and inactive: 39.3%
NC(=O)Nc1sc(-c2ccc(F)cc2)cc1C(N)=O | inactive: 39.7%
O=c1[nH]c(=O)n([C@H]2C[C@H](O)[C@@H](CO)O2)cc1I [Idoxuridine] | inactive: 41.9%
O=C(NC1CCOCC1)c1ccc(-c2cc(-c3c[nH]nc3-c3ccccn3)ccn2)cc1 | inactive: 40.4%
CNCC[C@H](Oc1cccc2ccccc12)c1cccs1 [Duloxetine] | inactive: 33.8%
CC(=O)c1cc([N+](=O)[O-])c(Sc2ccc(F)cc2F)s1 | inactive: 34.9%
CCOC(=O)CCNc1cc(N2CCc3ccccc3CC2)nc(-c2ccccn2)n1 | inactive: 47.7%
COCCO/C(O)=C1\C(C)=NC(C)=C(C(=O)OC(C)C)C1c1cccc([N+](=O)[O-])c1 (centres undefined) [Nimodipine] | inactive: 42.9%
O=C1c2cccc(O)c2C(=O)c2c(O)cc(CO)cc21 [Aloe-emodin] | inactive: 38%
CC(C)C[C@H](NC(=O)CNC(=O)c1cc(Cl)ccc1Cl)B(O)O [Ixazomib] | active: 4.65%
OC(CCN1CCCCC1)(c1ccccc1)C1CC2C=CC1C2 (centres undefined) [Biperiden] | inactive: 40.6%
CC1(C)S[C@H]2[C@@H](NC(=O)[C@@H](NC(=O)N3CCN(S(C)(=O)=O)C3=O)c3ccccc3)C(=O)N2[C@@H]1C(=O)O [Mezlocillin Sodium] | inactive: 47%
CNC[C@H](O)c1cccc(O)c1 [Phenylephrine] | inactive: 35.5%
COc1ccc2cc(CCC(C)=O)ccc2c1 [Nabumetone] | inactive: 45.4%
CN1CCC[C@@H]1Cc1c[nH]c2ccc(CCS(=O)(=O)c3ccccc3)cc12 [Eletriptan] | inactive: 52.5%
O=c1[nH]c(=O)n([C@H]2C[C@H](O)[C@@H](CO)O2)cc1F [Floxuridine] | inactive: 36.8%
O=C(NNc1ccccc1)c1ccncc1 [PluriSIn #1] | inactive: 54.6%
COc1cc2ncnc(Nc3ccc(Cl)cc3F)c2cc1OC | inactive: 51.5%
O=C(NCc1ccccc1)c1csc(Nc2ccncn2)n1 [Thiazovivin] | inactive: 51.8%
CN/C(=C/[N+](=O)[O-])NCCSCc1csc(CN(C)C)n1 [Nizatidine] | inactive: 41.5%
CCN1CCCC1CNC(=O)c1cc(S(=O)(=O)CC)c(N)cc1OC (centres undefined) [Amisulpride] | inactive: 45.9%
Nc1nc(F)nc2c1ncn2[C@@H]1O[C@H](COP(=O)(O)O)[C@@H](O)[C@@H]1O [Fludarabine Phosphate] | inactive: 36.6%
